Data published in PubChem BioAssay AID485344 (National Center for Advancing Translational Sciences (NCATS), 2010).
Out of some 340,000 compounds screened, about 6,900 (2%) were called active. Rule as the data show it: active = inhibition above about 30%; inactive = below that, where a call was filed. This is a selection; strong and weak results do not stand in their true shares. Where no call is shown, the source filed none.

These compounds were tested against D(2) dopamine receptor (Homo sapiens) (UniProt P14416) (assay: HTS Assay for Allosteric Antagonists of the Human D2 Dopamine Receptor: Primary Screen for Antagonists). Conditions: HEK293 TREx D2 cells, calcium flux, dopamine EC80; at 10 µM; stronger effect = higher value.
Method in brief: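 Calcium mobilization kinetics were recorded at 1 s intervals in tetracycline-induced HEK293 T-REx D2 cells, first for 180 s after compound addition and then 180 s after EC80 dopamine.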
Also: 0% is about no effect.

UniProt P14416, sequence (P14416 whole entry, looked up): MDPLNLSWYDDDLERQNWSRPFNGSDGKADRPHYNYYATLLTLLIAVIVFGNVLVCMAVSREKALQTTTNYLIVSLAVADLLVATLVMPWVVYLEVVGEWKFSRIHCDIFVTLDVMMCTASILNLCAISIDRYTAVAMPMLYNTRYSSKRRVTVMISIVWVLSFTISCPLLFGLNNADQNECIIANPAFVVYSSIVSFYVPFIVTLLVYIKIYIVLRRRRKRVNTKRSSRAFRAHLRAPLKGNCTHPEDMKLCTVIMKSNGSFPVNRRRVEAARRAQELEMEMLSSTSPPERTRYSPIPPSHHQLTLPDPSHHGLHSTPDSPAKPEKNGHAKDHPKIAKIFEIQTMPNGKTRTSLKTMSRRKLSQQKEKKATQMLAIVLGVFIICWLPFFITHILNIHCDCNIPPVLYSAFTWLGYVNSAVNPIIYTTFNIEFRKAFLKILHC

With O=C(OCCN1C(=O)c2cccc3c(N4CCOCC4)ccc(c23)C1=O)c1cccc(Cl)c1 the inhibition was active: 34.6%.
CC(C)[C@@H](NC(=O)OC(C)(C)C)C(=O)NCC1CCC(C(=O)N[C@@H](Cc2ccccc2)C(=O)O)CC1 (stereo partly drawn) was tested, and the inhibition was active: 31.8%.
In the case of C=CCc1cc(Cl)ccc1OCCN(C)C, the inhibition is reported as active: 53.2%.
COc1ccc(NS(=O)(=O)c2c(C)cc(C)cc2C)cc1 was tested, and the inhibition was active: 33.5%.
With CN(C)S(=O)(=O)c1cc(NC(=O)CN2CCN(c3ccccc3F)CC2)ccc1Cl the inhibition was active: 53.2%.
O=C(CC1NCCc2ccccc21)Nc1ccc(Oc2ccccc2)cc1 (stereo not drawn) was tested, and the inhibition was active: 60.3%.

In order of falling inhibition:
1. Cc1nc(SCC(=O)Nc2ccc(C(=O)O)cc2)n[nH]1  20.9%
2. CC1CCN(S(=O)(=O)c2ccc3c(c2)CCN3C(=O)Nc2ccc(Br)cc2F)CC1  19.2%
3. COc1ccccc1C(=O)Nc1ccc(S(=O)(=O)Nc2ncccn2)cc1  16.4%
4. COc1cccc(NC(=O)CSc2c3c(nc4ccccc24)CCCC3)c1  16.4%
5. Cc1ccc(C)c(N2CCN(C(=O)C(CC(C)C)NS(=O)(=O)c3ccc4nc(C)sc4c3)CC2)c1 (stereo not drawn)  15.2%
6. O=C(Nc1ccccc1C(F)(F)F)N1CC=C(c2c[nH]c3ccccc23)CC1  13.6%
7. CCCN1C(=O)C(Cc2nc3ccccc3c(=O)n2-c2ccc(OC)cc2)c2cc(C)ccc21 (stereo not drawn)  12.9%
8. COC(=O)CC(=O)CSc1nc2cc(C(=O)NCC(C)C)ccc2c(=O)n1CCc1ccccc1  12.6%
9. CC(=O)c1ccc(NC(=O)CC2Oc3ccc(C)cc3NC2=O)cc1 (stereo not drawn)  12.5%
10. CCc1ccccc1NC(=O)Cn1nc(N2CCN(c3ccccc3OC)CC2)ccc1=O  9.91%
11. Cc1c(Cl)ccc2sc(N3CCN(C(=O)C4CC4)CC3)nc12  6.76%
12. COc1cccc(N2CCN(c3ncnc4c3c(-c3ccccc3)cn4-c3cccc(C(F)(F)F)c3)CC2)c1  6.4%
13. COc1ccc(-c2cc3nc(C)c(CCC(=O)NC(C)c4ccccc4)c(C)n3n2)c(OC)c1 (stereo not drawn)  5.42%
14. Cc1cc(C)cc(OCC(=O)N2CCC(c3nc4ccccc4s3)CC2)c1  4.51%
15. NC(=O)CSc1nc2ccc(NC(=O)COc3ccccc3Cl)cc2s1  3.74%
16. CCOC(=O)c1cccc(NC(=O)N2CC=C(c3c[nH]c4ccccc34)CC2)c1  3.2%
17. CCOc1ccc(N(CC)S(=O)(=O)N2CCCC(C(=O)Nc3ccc(OC)c(Cl)c3)C2)cc1 (stereo not drawn)  1.72%
18. CCCCNC(=O)c1ccc2c(c1)NC(=O)C(CS(=O)(=O)Cc1ccc(C)cc1)N2 (stereo not drawn)  0.245%
19. COc1ccc(OC)c(NC(=O)CC(=O)Nc2ccc3nc4n(c(=O)c3c2)CCCCC4)c1  -0.682%
20. Cc1ccc(C2CCN(C(=O)c3cnn(-c4ccc(C)c(C)c4)c3C3CCN(C(=O)OC(C)(C)C)CC3)C2)cc1 (stereo not drawn)  -0.702%
21. CCc1cccc(C)c1NC(=O)CSc1nc2c(c(=O)[nH]1)CCC2  -1.28%
22. COc1ccc(OC)c(NC(=O)N2CC3CCCN3c3ccccc32)c1 (stereo not drawn)  -2.67%
23. CCOc1ccccc1C(=O)N1CCC(c2nc3ccccc3o2)CC1  -2.7%
24. CCOC(=O)Cc1c(C(=O)OCC)nnc2c(-c3ccccc3)c(C)nn12  -2.9%
25. CCCNC(=O)N1[C@H](c2cccs2)[C@@H](C)C(=O)[C@@H](C)[C@@H]1c1cccs1  -4.24%
26. COc1ccccc1CN(Cc1c(Cl)cccc1Cl)S(=O)(=O)c1ccc(Br)cc1  -4.47%
27. CC(=O)N1CCc2c(sc3c2c(=O)n(-c2ccc(C)cc2)c(=O)n3Cc2ccccc2C)C1  -4.95%
28. Cc1cccc(-n2nc(C)c(C(=O)N3CCN(c4ccccc4)CC3)c2-n2cccc2)c1  -6.12%
29. CCOC(=O)c1cnc2c(C)cccc2c1Nc1ccc(OC(C)C)cc1  -6.14%
30. CS(=O)(=O)N(Cc1ccccc1)c1ccc(C(=O)Nc2ccc(Cl)cc2)cc1  -6.45%
31. CCOc1ccc(-c2cc(C(=O)NCCc3ccc(OC)c(OC)c3)c3c(-c4ccc(F)cc4)[nH]nc3n2)cc1  -8.31%
32. Cc1cccc(NC(=O)CN2C(=O)CSc3ccc(S(=O)(=O)N4CCCC4)cc32)c1C  -10.5%
33. Cc1cc(C)c(OCCOCCn2c(-c3ccc(Cl)cc3)nc3ccccc3c2=O)c(C)c1  -10.8%
34. Cc1cccc(NC(=O)N2CCC(CN3CCCCCC3)CC2)c1C  -10.9%
35. Cn1cc(S(=O)(=O)c2cccc(Cl)c2)c(=O)c2cc(F)c(N3CCCCC3)cc21  -11.2%
36. Cc1ccc(C)c(N2CCN(c3nc4ccc(C(=O)c5ccccc5)cc4n4cnnc34)CC2)c1  -11.4%
37. Cc1ccc(Cl)cc1NC(=O)c1oc2ccc(S(=O)(=O)N3CCCCCC3)cc2c1C  -13%
38. O=C(NCCc1ccc(Cl)cc1)c1ccc(CSCc2cccc(Cl)c2)o1  -13.8%
39. COc1ccc(-c2onc(C)c2C)cc1S(=O)(=O)N1CCN(c2cc(C)ccc2C)CC1  -14.2%
40. Cc1nn(C(=O)c2cccc([N+](=O)[O-])c2C)c(C)c1S(=O)(=O)N1CCCCCC1  -15.3%
41. Cc1ccc(C(=O)Nc2ccc3oc(-c4ccccc4C)nc3c2)cc1  -21%
42. COc1ccc(Cl)cc1NC(=O)c1cc(S(=O)(=O)N(C)Cc2ccccc2)ccc1F  -21.5%
